Test results as given in the RNAGym collection of RNA variant scans (doi:10.1093/nar/gkz1192).
Read counts are not given, so values of variants with three or more changes are uncertain.

B1: CPEB3 Ribozyme (parent)
chain: UAACAGGGGGCCACAGCAGAAGCGUUCACGUCGCAGCCCCUGUCAGAUUCUGGUGAAUCUGCGAAUUCUGCUGUAUAUCUC

Variants of: B1
Experiment: self-cleavage, relative activity (ratio to wild type); higher = more cleavage; in vitro, sequencing
Outline: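 Relative activity compares each variant's cleaved/total read fraction with that of the unmutated ribozyme. To get these fractions, barcoded CPEB3 ribozyme libraries from rounds of error-prone PCR were transcribed with T7 RNA polymerase for 5 hours at 37°C and then given 15 min of DNase I treatment before EDTA was added. The RNAs were reverse transcribed with template switching and sequenced on Illumina, and DNA sequencing linked barcodes to variants. A minimum of 5 reads applied, and three batches were averaged.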

Variant	self-cleavage
A15U A21G U43A A45G U72C	0.3
A15G U26C A28U G33C U60C	0.04
A15G A45U U49G G53U A57G	0.09
A15G G42C A47U A57U G63U A77C	0.05
A15G U49C A57G G63U	0.16
A15G U41A U60A	0.27
A15G U67G G70C	0.17
A15G U26A U66C U69A	0.15
A15G U49G G55U	0.22
A15G A47G A65G	0.29
A15G U26C C32U U60A	0.2
A15G U41A U60C U72C	0.11
A15G A18C U43A U48C U58A	0.11
A15G A21G A45G C62U U72G U74A	0.12
A15U A18G C29U U31A U48C	0.08
A15G A18C U25C A65C	0.22
A15G C59U A65G U66A	0.14
A15U A20G C34U U43C	0.22
A15G U26C A35G A47G U60C	0.17
A15G U58C A64G U80C	0.27
A15G U69A A77U	0.29
A15G A21G G53C	0.52
A15G G36C U43C A45G A57G U67C C79U	0.12
A15G A21G U72G A75G	0.49

Variant	self-cleavage
A15G U26A C40U	0.26
A15G A18G U80A	0.33
A15G U31A G52A A56G	0.87
A15G G30A U41C G46A U69C	0.08
A15G U25C A28U C32A	0.11
A15U A20G U69A	0.3
A15G C29G U72A	0.37
A15G G24A A28G U48C U80A	0
A15U A18U U49A U54A A65U	0.08
A15U A21G A28G C40A	0.04
A15U A18G U58C A75C	0.28
A15G A45G U49C A65G U72C	0.08
A15G G19U G24U U48C A56U U60A A64U	0.04
A15U A20U U66C	0.47
A15G U41A U49C	0.28
A15G U31C U51C U78C U80A	0.17
A15G A28U U74C	0.56
A15G A21G C40U	0.36
A15G A35U U80C	0.79
A15G U31A U41G A75G	0.05
A15G U60C U72C	0.75
A15G A35G A47U U69A	0.08
A15G U26C C44A U60G	0.05
A15G A20G A28G A57G U72G	0

Variant	self-cleavage
A15G U41A A56G U60A	0.07
A15U A20G U31A A56U	0.12
A15G U31C C59A	0.04
A15G A20C C44U	0.09
A15G A56U G73U	0.8
A15G A18U U26C A56U U72C U74C	0.15
A15U A18G U31C A45G A64U U72C U74C	0.11
A15G C27A G42A	0.09
A15G A20G U69A	0.35
A15G A18G A21U C59G U60C	0.36
A15G C37G U67C U72A	0.13
A15G U25C A28G U43C U54A A56U	0.07
A15G A35G U48C A56U A64U U69A U80G	0.11
A15G A21G U54C A75U	0.63
A15G A45G A64U U72A A75C	0.17
A15G A35G U43C A57G	0.24
A15G U41A U66C	0.08
A15G C27A G52C A57G	0.2
A15G G61A U67C A75G	0.05
A15G U26G U69C	0.39
A15G U25C A28G U54C A56G	0
A15G G36U C44U A56U U60C U76C	0.1
A15G A28G A45G U49C A77U	0.4
A15U A18G C62G U66C U69C	0.11

Variant	self-cleavage
A15G U54C A56G	0.54
A15G C44G U72C	0.59
A15G U41C U48C	0.38
A15G A35G U43G U49C A57G	0.54
A15G A45U U60C	0.14
A15U A20G A45C A64G U78C	0.08
A15G U43C U72C	0.85
A15G A64G U80A	0.98
A15U A18U A47G A57G	0.3
A15U A21G A28U A56G U67C C71U	0.14
A15U A21U C34U U41C A57G C62U	0.05
A15G A21U U58C	0.23
A15G A45U U66A A77U	0.18
A15G G36C A75G	0.39
A15G C27U A35G A45G A56G U72A U74C	0.06
A15G U41A U67A	0.16
A15G A18U U72C G73U	0.19
A15G U26C U72C	0.73
A15G A18U A20G A56G U67C	0.05
A15G U31C U41A A45G U54C U69G	0.22
A15G U31C U48C G70A	0.04
A15G U41A A64U	0.26
A15G A28U A35U	0.23
A15G U54C U60C A64G	0.17

Variant	self-cleavage
A15G C23A G52C U67C U80A	0.05
A15G A18U U58A	0.29
A15G G61C U76C U78C	0.14
A15G A21G A35U	0.31
A15G A35U U54C U69C U72C U78C	0.35
A15G U26C A56G	0.3
A15G A35G U43C	0.21
A15G A35G C37U U49A	0.41
A15G A18G U41C U49A	0.03
A15G A18G G33U	0.49
A15G A28G U31C U69C U80C	0.08
A15G A20U U48C U51C	0.14
A15G G30A A77U	0.22
A15G U51A U67A	0.44
A15U A18U U31C G52A U60C	0.47
A15G C27U A28G	0.08
A15G U25C U78A U80C	0.32
A15G A35U C38A A45G	0.06
A15G C44U U74C U80C	0.19
A15G A45C C62U	0.14
A15G C37G U41C A45G A64U U80A	0.13
A15G C38A U80C	0.1
A15G U43A A47G	0.64
A15U A18U U25A A35U U54C	0.2

Variant	self-cleavage
A15G G36A U58C C62U	0.05
A15U A20G A45G	0.38
A15G A21G U51G U72C	0.45
A15G U31C U58A	0.47
A15G U41A U69A	0.16
A15G A18U U41C U51C A56U A64G	0.08
A15G A75G U80C	0.77
A15G A21G U69A U72C	0.24
A15G A20G G52A	0.42
A15G U26A U31C U43C	0.04
A15G U26A U31C U48A U51G	0.05
A15G A18G A64G U78C	0.39
A15G A18G A35U U48C A57C G61A A64U	0.11
A15G U25C A35U U72C A75U	0.25
A15G A20U U41A U48C	0.13
A15G A35U U74A	0.87
A15U A18G U80C	0.19
A15G A18G U48A	0.08
A15G C29G U31C G52C U54A G73C	0.09
A15G U25C A56U U72C	0.46
A15G A21C A35G U54A U72A	0.1
A15G A21U A64U	0.11
A15G U25C U49C	0.25
A15G C23G A28U U51C	0.04

Variant	self-cleavage
A15U A21C U25C C40A C50U A56G	0.19
A15G U31G U67C	0.19
A15G U43C A57G	0.24
A15G U43C U76C	0.5
A15G C40U U51A	0.57
A15U A20G A28G U66G C71A	0.09
A15G A45U U51A	0.32
A15U A21G A45G U76A	0.15
A15G A57G U66C U67C U78C	0.1
A15G A45U U54C	0.37
A15G U49C U60A	0.18
A15G A18U U76C	0.16
A15G C29U U31A U72A A75G	0.11
A15G A20U U69C U80C	0.09
A15G U49C C81U	0.67
A15G U25C U41C U43C	0.03
A15G A47U A75U	0.38
A15G A21G U26C A28C U41C A56G U80C	0
A15G A35U U54C C68A	0.1
A15G G24A U72C U74C	0.33
A15U A18U A20U U48C A56U U58A	0.23
A15U A20G U78A	0.39
A15U A21G A56G U67C C71U	0.25
